{
  "source": "PubChem BioAssay AID1458",
  "about": "(National Center for Advancing Translational Sciences (NCATS), 2008)",
  "note": "The whole screen tested about 210,000 compounds, of which about 5,900 (2.8%) were called active. Inconclusive results, whose numbers are uncertain, are shown with a selection of clear calls. The call rests on the fitted dose curve; in most records, active means well fitted activation curve with a large enough effect; inconclusive means small, poorly fitted or top-dose-only effect; inactive means no such curve, though single readings can be large or run the other way. A potency beside an inconclusive call is a rough fit, not a confirmed value. Potency means the concentration at half of the fitted maximal effect; tags describe the fitted curve by direction and shape.",
  "data": [
    {"experiment": "qHTS Assay for Enhancers of SMN2 Splice Variant Expression; further: nearly all actives have a fitted effect of over 55% in size; on activity change, positive = activation: % of control where 0% means no effect", "conditions": "HEK293 SMN2-luciferase splicing reporter, luminescence, 30-36 h; activity change, positive = activation: at 46.1 µM (top of the series)", "in_short": "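HEK293 cells carry an SMN2 minigene-luciferase reporter in which exon 7 inclusion puts luciferase in frame. Cells were seeded at 2000 cells/well, attached for 10-12 hours, then exposed to compounds for 30-36 hours at 37C before ONE-Glo luminescence.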", "values": [
      {"compound": "COc1cc(NC(=O)CSc2nnc3n2C(C)(C)Cc2ccccc2-3)cc(OC)c1", "activity change, positive = activation": "inactive: -34.1%"},
      {"compound": "CCS(=O)(=O)N1Cc2ccccc2CC1C(=O)Nc1cccc(C)c1", "note": "(stereo not drawn)", "Potency": "inconclusive: 8.91 µM [activator, partial curve, poor fit]"},
      {"compound": "CCOc1ccc(-c2ccc(SCC(=O)N3CCOCC3)nn2)cc1", "Potency": "inconclusive: 5.01 µM [activator, partial curve]"},
      {"compound": "CN1/C(=C\\C=C2/C(=O)Oc3ccccc3C2=O)C(C)(C)c2ccccc21", "Potency": "inconclusive: 35.5 µM [activator, single point]"},
      {"compound": "Cc1nc2ccc(-c3nc4ccccc4[nH]3)cc2[nH]1", "Potency": "active: 2.82 µM"},
      {"compound": "COc1ccc(Cn2c(C3CC3)nc3ccc(NC(=O)C4CC4)cc3c2=O)cc1", "Potency": "active: 11.2 µM"},
      {"compound": "CCN(C(=O)Cc1c(C(=O)O)[nH]c2ccccc12)c1ccc(OC)cc1", "Potency": "inactive"},
      {"compound": "NC(=O)c1cn(-c2ccccc2)nc1-c1cc2ccccc2oc1=O", "activity change, positive = activation": "inactive: -5.58%"},
      {"compound": "O=C(COC(=O)C12CC3CC(CC(C3)C1)C2)Nc1ccc([N+](=O)[O-])cc1Br", "activity change, positive = activation": "inactive: 10.1%"},
      {"compound": "Clc1ccccc1-c1nnc(-c2ccc3c(c2)OCO3)o1", "Potency": "active: 5.01 µM"},
      {"compound": "CC1(C)CC(=O)C2=C(C1)N=C1c3ccccc3C(=O)C1C2c1ccc(Cl)cc1", "note": "(stereo not drawn)", "activity change, positive = activation": "inactive: -9.07%"},
      {"compound": "O=C(O)c1ccc(COc2cccc(CO)c2)cc1", "Potency": "inconclusive: 15.8 µM [activator, partial curve]"},
      {"compound": "CNc1nc(N)c(C(=O)Nc2cc(C)on2)s1", "Potency": "active: 14.1 µM"},
      {"compound": "CC(C)CCNC(=O)C(=O)NCCC1=CCCCC1", "Potency": "inconclusive: 20 µM [activator, partial curve, poor fit]"},
      {"compound": "Cc1ccc2oc(-c3ccc(NC(=O)CC(C)C)cc3)nc2c1", "Potency": "inconclusive: 3.16 µM [activator, partial curve, poor fit]"},
      {"compound": "Cn1c(=O)oc2cc(S(=O)(=O)NCc3ccco3)ccc21", "Potency": "inconclusive: 35.5 µM [activator, single point]"},
      {"compound": "CC(=Nc1cccc(O)c1)c1sc2ccccc2c1O", "Potency": "active: 17.8 µM"},
      {"compound": "Cc1cc(NC(=O)c2noc3c2CCCC3)no1", "Potency": "inconclusive: 14.1 µM [activator, partial curve, poor fit]"},
      {"compound": "O=C(COc1ncnc2ccccc12)c1ccc(Cl)cc1", "Potency": "inconclusive: 35.5 µM [activator, single point]"},
      {"compound": "COc1ccc(C2CC(=O)C=C(NNS(=O)(=O)c3ccc(C)cc3)C2)cc1", "note": "(stereo not drawn)", "Potency": "inconclusive: 0.199 µM [activator, full curve, poor fit]"},
      {"compound": "Cc1c(N=NC2=C(O)CC(C)(C)CC2=O)c(=O)n(-c2ccccc2)n1C", "activity change, positive = activation": "inactive: -33%"},
      {"compound": "Cc1ccc(/C=C2\\OC(=O)c3ccccc32)cc1", "Potency": "inconclusive: 8.91 µM [activator, partial curve]"},
      {"compound": "C[C@H]1C2=C3C(C[C@H]4C(=O)N(c5ccccc5)C(=O)[C@H]4[C@H]3[C@@]3(Cc4ccccc4)C(=NCCc4c[nH]c5ccccc45)OC(=O)N3C2=O)[C@H]2C(=O)N(c3ccccc3)C(=O)[C@H]21", "note": "(stereo partly drawn)", "activity change, positive = activation": "inactive: -1.64%"},
      {"compound": "CNc1ccccc1C(=O)OCC(=O)c1ccccc1", "Potency": "inconclusive: 11.2 µM [activator, partial curve, poor fit]"},
      {"compound": "Cc1ccc(Cl)cc1N1CCN(C(=O)c2cn(C3CCCCC3)c(=O)c3c2c2ccccc2n3C)CC1", "activity change, positive = activation": "inactive: -0.756%"},
      {"compound": "Cc1ccc(N/N=C(\\C#N)C(=N)N2CCCCCC2)cc1", "Potency": "active: 2.24 µM"},
      {"compound": "COCC(=O)Nc1ccc(C)c(Cl)c1", "activity change, positive = activation": "inactive: -7.9%"},
      {"compound": "COCCNC(=S)N1CCc2cc(OC)c(OC)cc2C1COc1cc(C)cc(C)c1", "note": "(stereo not drawn)", "Potency": "inconclusive: 0.708 µM [activator, full curve, poor fit]"},
      {"compound": "CCCc1nc2ccccc2c(C(=O)OCC(=O)N2CCc3ccccc32)c1CC", "activity change, positive = activation": "inactive: -51.4%"},
      {"compound": "CN(C)/C=C(\\C=O)c1onc(-c2ccccc2Cl)c1C#N", "activity change, positive = activation": "inactive: -5.26%"},
      {"compound": "O=[N+]([O-])c1ccccc1OCCCn1cnc2ccccc21", "Potency": "active: 11.2 µM"},
      {"compound": "COC(=O)CSc1nnc(CNS(=O)(=O)c2ccc(Br)cc2)n1C", "Potency": "inconclusive: 28.2 µM [activator, single point]"},
      {"compound": "CCn1c(=O)n(CC)c2cc(S(=O)(=O)N3CCCCC3)c(C)cc21", "Potency": "inconclusive: 7.08 µM [activator, full curve, poor fit]"},
      {"compound": "CC(=O)c1sc(N/N=C\\c2cccc(Br)c2)nc1C", "Potency": "inconclusive: 28.2 µM [activator, single point]"},
      {"compound": "CC1CCCCN1C(=O)NC12CC3CC(CC(C3)C1)C2", "note": "(stereo not drawn)", "activity change, positive = activation": "inactive: -10.1%"},
      {"compound": "N=c1oc2cc(O)ccc2cc1C(=O)Nc1nc2ccccc2s1", "activity change, positive = activation": "inactive: 0.141%"},
      {"compound": "CCn1nc(NC(=O)C2CCCO2)c2cc3cc(C)ccc3nc21", "note": "(stereo not drawn)", "Potency": "inconclusive: 14.1 µM [activator, single point]"},
      {"compound": "CC(C)CC(=O)Nc1ccc2c(c1)oc1ccccc12", "Potency": "active: 5.62 µM"},
      {"compound": "CN=C(N)/N=C(\\N)Nc1cc2ccccc2c2ccccc12", "activity change, positive = activation": "inactive: 6.13% [at 9.22 µM]"},
      {"compound": "COC(=O)c1oc2ccc(Cl)cc2c1N", "Potency": "inconclusive: 35.5 µM [activator, partial curve, poor fit]"},
      {"compound": "CCc1ccc2c(c1)C(c1ccc([N+](=O)[O-])cc1)=NNC(c1ccc(F)cc1)=N2", "Potency": "inconclusive: 6.31 µM [activator, partial curve]"},
      {"compound": "Cc1ccc2nc(NC3=NC(CC(=O)O)C(=O)N3)nc(C)c2c1", "note": "(stereo not drawn)", "Potency": "inconclusive: 22.4 µM [activator, partial curve]"},
      {"compound": "COc1ccccc1N/N=C(\\C#N)C(=N)N1CCOCC1", "Potency": "inconclusive: 15.8 µM [activator, single point]"},
      {"compound": "CN1CCN(c2ccc(NC(=O)c3ccccc3Br)cc2)CC1", "Potency": "inconclusive: 0.891 µM [activator, full curve, poor fit]"},
      {"compound": "COc1ccc(/C=N/NC(=O)Cn2nnc3ccccc32)cc1OC", "activity change, positive = activation": "inconclusive: 30.2% [activator]"},
      {"compound": "CC(C)(C)C(=O)N1CCc2cc(-c3csc(N)n3)ccc21", "Potency": "inconclusive: 3.16 µM [activator, partial curve]"},
      {"compound": "CC(C)c1ccc(Nc2nnc(SCC(=O)c3nnc(-c4ccccc4)o3)s2)cc1", "Potency": "active: 10 µM"},
      {"compound": "CC(=C/c1ccccc1)/C=N/NC(=O)c1cc(C)oc1C", "Potency": "active: 15.8 µM"}
    ]}
  ]
}
